# Laboratory results as given in PubChem BioAssay AID1347073 (National Center for Advancing Translational Sciences (NCATS), 2019).
# In all, about 45,000 compounds went through this assay and about 200 (0.44%) were called active. Another 7% or so got no clear call; they are omitted. Calls come from the whole dose curve; as a rule, active = well fitted activation curve with a large enough effect; inconclusive = small, poorly fitted or top-dose-only effect; inactive = no such curve, though single readings can be large or run the other way. Some of the results follow.
# Test: qHTS of TDP-43 Inhibitors: NCGC Sytravon Library Screen; note: 0% is about no effect; nearly all actives have a fitted effect of over 55% in size
# Settings: yeast TDP-43 toxicity rescue, BacTiter-Glo growth, 24 h; series mostly up to 46.1 µM; growth rescue (activation): at the top concentration
# Method in brief: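 TDP-43-expressing yeast, pregrown in raffinose, seeded at OD600 0.02 in galactose medium with compound for 24 hr at 30 deg C. Growth read by BacTiter-Glo luminescence, so rescue of toxicity appears as activation.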
row,Structure (SMILES),growth rescue (activation)
1,Cc1cc(C)cc(OCC(=O)N(Cc2ccc(C)o2)C2CCS(=O)(=O)C2)c1 (stereo unspecified),inactive: 3.3%
2,O=C(O)CNC(=O)/C(=C\c1ccc2c(c1)OCO2)NC(=O)c1ccc(Br)cc1,inactive: -2.28%
3,O=c1cc(-c2ccc([N+](=O)[O-])cc2)c2cc3c(cc2[nH]1)OCCO3,inactive: -18.3%
4,CCN(CC)S(=O)(=O)c1cccc(NC(=O)CCSc2ccc(Cl)cc2)c1,inactive: 15.7%
5,CC1(C(=O)NS(=O)(=O)c2ccc(C#N)cc2)CCN1C(=O)CCC1CCCC1 (stereo unspecified),inactive: 2.94%
6,N#Cc1c(SC(C(=O)O)c2ccccc2)nc2c(c1-c1cccs1)CCCC2 (stereo unspecified),inactive: 9.12%
7,Cc1ccc(S(=O)(=O)Nc2ccc(Cl)cn2)cc1C,inactive: 3.6%
8,CCCNC(=O)COC(=O)c1cc2c(=O)n3ccccc3nc2s1,inactive: 13.7%
9,COc1ccc([N+](=O)[O-])cc1NC(=O)C(C)Sc1nc(C)c(C)c(C)n1 (stereo unspecified),inactive: 5.6%
10,CC(OC(=O)c1ccc(Cl)cc1O)C(=O)NCCC1=CCCCC1 (stereo unspecified),inactive: -10.8%
11,COc1cc(/C=N/NC(=O)c2cc[n+]([O-])cc2)ccc1O,inactive: -6.25%
12,CC(OC(=O)c1cccs1)C(=O)NC1CC1 (stereo unspecified),inactive: 5.95%
13,CC(=O)Oc1ccc(C(=O)Nc2cccc(NC(=O)c3ccco3)c2)cc1,inactive: 14.1%
14,O=C(N/N=C/c1ccccc1[N+](=O)[O-])c1ccc(CN2CCOCC2)cc1,inactive: 8.93%
15,COc1cc(/C=C2\CCC(C3CCCC3)C2=O)cc(OC)c1OC (stereo unspecified),inactive: 3.36%
16,CCc1ccc(NC(=O)C/C(C)=N/NC(=O)COc2ccccc2C)cc1,inactive: 4.99%
17,CCCC(C(=O)NC(C)(C)C)N(CCN1CCOCC1)C(=O)CNS(=O)(=O)c1ccccc1 (stereo unspecified),inactive: 12.6%
18,CC(=O)OCC(=O)N1N=C(c2ccc3ccccc3c2)CC1c1ccccc1 (stereo unspecified),inactive: 12.8%
19,CCN(CC)S(=O)(=O)c1cccc(NC(=O)/C=C/c2cccc([N+](=O)[O-])c2)c1,inactive: 5.03%
20,CC(=O)Nc1ccc(S(=O)(=O)N2CCN(S(=O)(=O)N3CCOCC3)CC2)cc1,inactive: 6.31%
21,CC1=C(C(=O)OC2CCCC2)C(c2coc3ccc(C)cc3c2=O)C2=C(CCCC2=O)N1 (stereo unspecified),inactive: -2.82%
22,CCN(CC)S(=O)(=O)c1ccc(N2CCOCC2)c(NC(=O)c2ccccc2F)c1,inactive: 8.69%

row,Structure (SMILES),growth rescue (activation)
1,CCn1c2ccccc2c2cc(CN3CCN(Cc4ccccc4C)CC3)ccc21,inactive: 11.4%
2,O=C(OCc1cncs1)c1cccs1,inactive: 0.489%
3,CC1CCN(CCCCOc2ccccc2F)CC1,inactive: -8.12%
4,CN1N=C(C(=O)N=c2sc3ccccc3n2C)CCC1=O,inactive: -11.7%
5,CNS(=O)(=O)c1cccc(C(=O)OCC(=O)/C=C2/N(C)c3ccccc3C2(C)C)c1,inactive: -16.3%
6,CN(C)/C=C/C(=O)c1ccc(Oc2ccccc2)cc1,inactive: -94.6%
7,O=C1c2oc3ccccc3c(=O)c2C(c2cccc(Cl)c2)N1c1ccccn1 (stereo unspecified),inactive: 8.42%
8,O=C(Nc1ccc(Br)cc1)c1cccc(N2C(=O)C3C4CCC(C4)C3C2=O)c1 (stereo unspecified),inactive: 6.47%
9,CCC(=O)N(CCC(Cc1ccccc1)c1ccc2c(c1)OCO2)Cc1ccccc1F (stereo unspecified),inactive: 18.7%
10,COc1ccc2[nH]c3c(=O)n(Cc4ccc(C(=O)N5CCC(C(N)=O)CC5)cc4)c(=S)[nH]c3c2c1,inactive: -1.39%
11,CCN(CC)S(=O)(=O)c1ccc(N(C)C)c(NC(=O)CC(NC(C)=O)c2ccccc2)c1 (stereo unspecified),inactive: -12.9%
12,CCc1nnc(SCc2cn3c(C)cc(C)nc3n2)n1N,inactive: 25.8%
13,COc1ccc(C(=O)Nc2ccc(NC(=O)Cc3ccccc3)cn2)cc1,inactive: 9.59%
14,COc1ccc(NC(=O)CCCN2C(=O)COc3ccc(C)cc32)cc1OC,inactive: 0.708%
15,COc1ccc(OCC(=O)N/N=C/c2ccncc2)cc1,inactive: 8.45%
16,CCC(=O)Nc1ccc(NC(=O)Cc2ccccc2)cn1,inactive: 20.1%
17,Cc1cc2oc(C(=O)Nc3ccc(S(=O)(=O)N4CCCC(C)C4)cc3)cc(=O)c2cc1Cl (stereo unspecified),inactive: -6.14%
18,Cc1ccc(C(=O)NCCCNC(=O)c2ccccc2F)cn1,inactive: 0.158%
19,CCOc1ccc(-c2cnc3cccnn23)cc1,inactive: 22.2%
20,Cc1ccc(N(CC(=O)NC2CCCCC2)C(=O)CNC(=O)c2ccco2)c(C)c1,inactive: 4.59%
21,CNC(=O)C1=C(C)Nc2nc3ccccc3n2C1c1ccc(F)cc1 (stereo unspecified),inactive: 1.8%
22,COc1cc(CC(NC(C)=O)C(=O)NC2CCN(C(=O)Nc3ccccc3C)CC2)cc(OC)c1 (stereo unspecified),inactive: 8.76%

row,Structure (SMILES),growth rescue (activation)
1,O=C(CCC(=O)Nc1ccc(F)cc1)N/N=C/c1cccnc1,inactive: 14.1%
2,Cc1ccccc1C(=O)c1cccn1CC(=O)NCc1cccc(Cl)c1,inactive: 25.4%
3,Cn1nc(C(F)(F)F)c2cc(C(=O)N3CCOCC3)sc21,inactive: 10.5%
4,COc1ccc(CN(C)C(=O)Cc2ccsc2)c(OC)c1OC,inactive: 3.52%
5,O=C(CN1C(=O)COc2ccc(S(=O)(=O)N3CCOCC3)cc21)NCc1ccco1,inactive: -0.457%
6,Cc1cc([N+](=O)[O-])ccc1NC(=O)c1ccc(NC(=O)C(C)C)cc1,inactive: 9.96%
7,Cc1ccc(O)c(C(=O)c2cc(C(=O)NCCc3ccccc3)c(=O)n(CCc3ccccc3)c2)c1,inactive: 12.9%
8,O=C(CCCC(=O)N(c1ccc(F)cc1)C(C(=O)NC1CCCC1)c1ccc(O)cc1)Nc1ccccn1 (stereo unspecified),inactive: 6.17%
9,COc1ccc(/C=N/n2cnn(Cc3ccccc3Cl)c2=S)cc1OC,inactive: -2.08%
10,O=C(/C=C/c1ccccc1)C1=C(O)C(=O)N(CCO)C1c1ccccc1[N+](=O)[O-] (stereo unspecified),inactive: -22.7%
11,CCCCNC(=O)N(O)C1N(/N=C/c2ccc(N(C)C)cc2)C(=S)SC1(C)C (stereo unspecified),inactive: 8.66%
12,COc1ccccc1OCC(=O)Nc1ccccc1C(=O)N1CCCC1,inactive: -0.738%
13,Cc1ccc2c(c1)N(CCCC(=O)NCc1cccc(F)c1)C(=O)CO2,inactive: 26.2%
14,CCN1CCN(c2cc(C)c3cc(NC(=O)CCC(=O)N4CCN(c5ccccc5OC)CC4)ccc3n2)CC1,inactive: 7.33%
15,CN(C)CCCN=Cc1c(-c2ccccc2)[nH]n(-c2nc3ccccc3s2)c1=O,inactive: 12.5%
16,O=C(NC1CCCC1)C(c1ccc(N2CCOCC2)cc1)N(Cc1ccco1)C(=O)c1ccco1 (stereo unspecified),inactive: -1.97%
17,COc1ccc(/C=N/Nc2cc(C)nc3ccc(Br)cc23)cc1,inactive: 11.3%
18,C/C(=N\Nc1ccc(Cl)c(C(=O)O)c1)c1cccc2ccccc12,inactive: -1.87%
19,Cc1ccc2[nH]c(=O)c(COC(=O)C3CCCCC3)cc2c1,inactive: 3.28%
20,COc1cc(/C=C/C(=O)OCC(=O)c2ccc(OC(F)F)cc2)ccc1O,inactive: 0.605%
21,O=C1NC2(CCCCC2)C(=O)N1Cc1ccc([N+](=O)[O-])cc1,inactive: 15.5%
22,CCOC(=O)c1ccc(N2C(=O)CC(N3CCN(Cc4ccccc4)CC3)C2=O)cc1 (stereo unspecified),inactive: -16.1%
